Assay results from the supplement of paper PMC11383711.
Some of the results follow. Binding of human antibodies (heavy:light variable regions, tested as scFv in one mRNA-display pool) to influenza hemagglutinin, with or without the stem antibody CR9114 bound first. Score = (mean enrichment − median) / interquartile range of that screen; higher = more enriched, 0 = typical non-binder. Active = above the paper's cut-off per screen: stems 28; unblocked H1 Solomon Islands 5, H1 Michigan 3, H3 5, H5 19, H7 2.85, both B 5; blocked 9, 7, H5 10, H7 10, B Phuket 10, B Lee 11.5. Scores are scaled within each screen and are no affinities; replicates correlate at about 0.6 to 0.9, and antibodies rare in the pool are noisier.

B1: W85-2E09 (protein)
chain 1: EVQLVESGGGLVQPGRSLRLSCTASGFTFSDYTMNWVRQAPGKGLEWIGFIRSNLYGGTSPYPASVRDRFTISRDDSKNIAYLQMNSLNTEDTAVYFCSRRRRGSTPLPDLWGQGTLVTVSS
chain 2: DIQMTQSPSTLSASVGDRVTITCRASQNVFSWLAWYQQKSGKAPQLLIYKASNLESGVPSRFSGSGSGTEFTLTINNLQPDDFASYYCQQYNSHSVWTFGQGTKVELK
B2: K77-1D10 (protein)
chain 1: QVQLQESGPGLVKTSGTLSLTCAVSGGSMSSSDWWSWVRQPPGKGLEWIGEIHRSGTSNYNPSLQTRVTISVDKSKNQFSLKLTSVTAADTAVYYCARVATLYYDDNTPYSSYYFDFWGQGILVPVSS
chain 2: EIVLTQSPGTLSLSPGERATLSCRASQSVSTNYLAWYQQSPGQAPRLLIYGASSRAAGIPDRFSGSGSGTDFTLTITRLEPEDFAVYYCQHYVTSPLFGGGTKVEI
B3: 051-10-2D06 (protein)
chain 1: EVQLVESGGGLVQPGGSLRLSCAASGFTFTRHWMSWVRQAPGKGLEWVANVKQDGSDKYYVDSVKGRFTISRDNAKNSVYLQMNSLRAEDTAVYYCARYGGSYLDYWGQGTLVTVSS
chain 2: QSALTQPASVSGSPGQSISISCTGTSSDVGNYNFVSWYQQHPGKAPKLMIYEDNKRPSGVSSRFSGSKSGNTASLTIFGLQAEDEADYYCCSYAGSSTYVFGTGTRVPVL
B4: K77-1E06 (protein)
chain 1: EVQVVESGGRLVRPGGSLRLSCAASGFILSNFWMTWVRQAPGKGLEFVANIKQDGSLKYYVDSVKGRFTISRDNAMNSVYLQMNSVRAEDSAVYYCARDWFGRELGAMDIWGQGTTVTVSS
chain 2: DIVMTQSPDSLAVSLGERATINCKSSQTLLSRSNNKNYLAWYQHRPGQPPKLLIYWASTRASGVPDRFSGSGSGTDFTLTITSLQAEDVAVYFCQQYYGSPLTFGGGTRVQIK
B5: R95-2E11 (protein)
chain 1: EVQLVESGGGLVQPGRSLRLSCAASGFTFDDYAMHWVRQAPGKGLEWVSGISWNSGHLGYADSVKGRFTISRDNVKNSLYLEMNSLGPEDTALYYCAKDIVGDYGSGSYYDYWGQGTLVTVSS
chain 2: SYELTQPPSVSVAPGQTARITCGGNNIGSKSVHWYQQKPGQAPVLVVYDDSDRPSGIPERFSGSNSGNTATLTISRVEAGDEADYYCQVWDGSSDHRYVFGTGTKVTVL
B6: antibody 1A03 (protein)
chain 1: VQLLESGGGLVNPGRSLRLSCTASGFTFGDYAVSWFRQAPGKGLEWVGFIGSKKYGDTIEYAASVRGRFTISRDDFQSTAYLQMNSLRTEDTGVYFCSRDRQLAEHSMDVWGQGTTVTVSS
chain 2: DIQMTQSPSSLSASVGDRVTIPCRANQSISTHINWYQQKPGKAPKLVIYGASNLETGVPSRFSGGGSGTDFTLTISSLQPEDIATFYCQQYDTFPITFGQGTRLEIK
B7: 01.y.01 (protein)
chain 1: EVQLVESGGGLVQPGGSLRLSCAASGFTFSSYWMTWVRQAPGKGLEWVANIKQDGSSKYYVDSLKGRFTISRDNAKNSLYLQMNSLRDEDTAVYYCARDRTPGYSYGYVDRVVWRNPYYGMDVWGQGTTVAVSS
chain 2: DIQMTQRPVSLSASVGDTVTITCRASHSIATYLNWYQQKPGKAPNLLISTASDLQSGVPSRFSGSGSGTDFTLTIDSLQPEDFATYYCQQSYSIPLTFGGGTRVEIK
B8: 051-09-5B06 (protein)
chain 1: EVQLVESGGGLVKPGGSLRLSCAASGFPISIGWTTWVRQAPGKGLEWVGLMKSDNGGGATLYAAPMKGRFSISRDDSKNTVYLQMDRLETEDTGIYYCSSTADRDYYDTAGFLDFWGPGTLVTVSS
chain 2: DIVMTQSPLSLTVTPGESASISCRSSQNVQHSNGYNYLHWYLQKPGQSPRLLIYLGSNRASGVPDRFSGSGSGTDFTLKISRVEADDVGVYYCMQALQTRTFGGGTKVEIK
B9: R95-2B02 (protein)
chain 1: QVQLVQSGAEVKKPGASVKVSCKASGYTFTGYYLHWVRQAPGQGLEWMGWINPDSGGTSFAQKFQGWATMTSDTSISTAYMELSGLKSDDTAVYYCARIQRAGSGFDLWGQGTMVTVSS
chain 2: QSALTQPASVSGSPGQSITISCSGTSSDVGSYNLVSWYQQHPGKTPKLMIYDVSKRPSGVSNRFSGSKSGSTASLTVSGLQAEDEADYYCYSYAGSRAWVFGGGTKLTV
B10: antibody 1D02 (protein)
chain 1: EVQLVESGGGLEQPGRSLRLSCEASGFTFDEYAMHWVRQAPGKGLEWVSGISWSSGVIGYADSVRGRFTISRDNAKNSLYLQMNSLTGEDTALYYCAKDSVAETAIRGYYFDYWGQGTLVTVSS
chain 2: DIQMTQSPSTLSASVGDRVTITCRASQYISRWLAWYQQKPGKAPNLLIYDASSLETGVPSRFSGSGSGTEFTLTINSLQPDDFATYYCQQYHSLSALTFGGGTKVEIK
B11: W85-1F04 (protein)
chain 1: QVQLVQSGAEVKKPGASVKVSCKASGYTFTTYDINWVRQATGQGLEWMGWMNPNSGNTGSAQNFQGRVTMTRNTSINTAYMELSSLRSDDTAVYYCVRGLGYCTSTSCYGSWFDPWGQGTLVTVSS
chain 2: EIVMTQSPATLSVSPGERATLSCRASQNISSNLAWYQQKAGQVPRLLIYGASTRATGCPARFSGSGSGTEFTLTISSLQSEDFAVYYCQQYDNWTPITFGQGTRLEIK
B12: 009-10-2G06 (protein)
chain 1: EVQLVESGGGFVRPGGSLRLSCVGSGFNFDDSAMHWVRQGPGKGLEWVAGINWKSNDIAYVESVKGRFTISRDNAKRTLFLQMNSLRPDDTALYFCAKDRAGYFYAMAVWGQGATVTVSS
chain 2: SYELTQPPSMSVAPGQTAKITCGGDHIGIRSVHWYLRRPGRAPVLVLYDLNDRPLGIPERFSGSNSGHTATLTISGVEAGDEGDYYCQVWDGSGDNRGIFGGGTKLTVL
B13: R95-2C07 (protein)
chain 1: EVQLVESGGGLVQPGGSLRLSCEVSGFSFSSYWMSWVRQAPGKGLEWVANIKQDGSEKNYVDSVKGRLTISRDNAKNSLYLQMDSLRAEDTAVYYCARDGPHDFWSGYPFDYWGQGTLVTVSS
chain 2: DIQMTQSPSSLSASVGDRVTITCRASQGIRDDLGWYQQKPGKAPKRLIYAASSLQSGVPSRFSGSGSGTEFTLTISSLQPEDFATYYCLQHNSYPRTFGQGTKVEIK
B14: 240-14-IgG-1A06 (protein)
chain 1: QVTLKESGPVLVKPTETLTLTCTVSGFSLSNIIMGVSWIRQPPGRALEWLAHITSKDEKSYSTSLKKRLTISKDTSKSQVVLIMANMDPADTATYYCTRIRWDCGGDCYWTHDFWGQGTLVTVSS
chain 2: SYELTQPPSVSVSPGQTARITCSGGRLGDTFASWYQQRPGQAPVLVIYRDTMRPSGIPERFSGSNSGHAATLTISGTQTMDEADYYCQVWDTSASAHVFGTGTTVTVL
B15: 16.ND.95 (protein)
chain 1: EVQLVESGGGMVQPGRSLRLSCAASGFTFGNYAMHWVRQAPGKGPEWVAVISYDGSQKYYTESVKGRFTISRDSSRNMVFLQMNSLRPDDTALYYCVRDRAASLDYWGQGTLVTVPS
chain 2: DIQMTQSPVSPSGSVGDRVTITRRASQSIARVVNWYQQKPGRAPKLLIFYASSLESGGPSRFSGRGFGTDFTITISGLQPEDFATYYCQQRYSAPYTFGQGTNLEIK
B16: 014-10-1D01 (protein)
chain 1: QVQLQESGPGLVKPSQTLSLICTVSGGSVSSGNHYWSWIRQPAGRGLEWIGRIFSDGSTYYHPSLKSRVTMSLDTSKNQVSLKLSSVTAADTAMYYCARDYSGYDYLAFDIWGQGSMVTVSS
chain 2: QSVLTQPPSASGTPGQRVTISCSGDNFNIGRNTVNWYQQLPGTAPKLLIYTTNQRPSGVPDRFSGSQSGTSASLAISGLQSEDEADYYCAAWDDSLSGLWVFGGGTKLTVL
B17: antibody 2C03 (protein)
chain 1: VQLVESGGGVVQPGRSLRLSCAASGFTFSTYAMHWVRQAPGKGLEWVAIISYDGTYKYYADSVKGRFTISRDNLKNTLYLQMDSLRAEDTAVYYCGGECDGDCGGIDYWGQGALVTVSS
chain 2: DIVMTQSPDSLAVSLGERATINCRSSHSLLYSSNNKNYLAWYQQKPGQPPKLLIYWASTRHSGVPDRFSGSGSGTDFTLTISSLQAEDVALYYCQQYYDTPFTFGPGTKVEIK
B18: 051-09-4D03 (protein)
chain 1: QVQLVQSGPEVRKPGASVKVSCKASGYTFTNHDINWVRQAPGQGLEWMGWVNPSNNNVGYAQKFRGRVTMTKDSSTSTVHMELYSLTSEDTAVYYCARGLGGGISVFGVLVRGRWFDPWGQGTLVTVSS
chain 2: DIQMTQSPSTLSASVGDRVTITCRASQSISTDLAWYQQKPGRAPKVLIFEASRLQSGVPSRFSGSGSGTEFTLTISSLQPGDVATYYCQQYNIYSWTFGQGTKVEIK
B19: R95-1B07 (protein)
chain 1: QVQLQGSGPGLVKPSGTLSLTCGVSCASISSNHVSSGVPQPPGKGGEAIGELVHNGRTIYNPSLRSRLNISLDRSKILFSLKLTSVTAADTAVYYCAFFQRGYTSGSDYWGQGTLVTVSS
chain 2: QAVVTQEPSFSVSPGGTVTLTCGLSSGSVSTNNYPSWYQQTPGQAPRTLIYSTNTRSSGVPDRFSGSILGTRAALTVTGAQAEDESDYYCMLYLGSGSWVFGGGTKLTVL

Experiments:
[1] = target: H1 HA stem construct (mini-HA #4900); experiment: mRNA display binding score; higher = more enriched on the antigen; conditions: antigen blocked with: nothing
Method: (§1)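 A pool of natively paired antibodies, displayed as scFv on mRNA, was selected once on antigen-coated beads and sequenced before and after; two replicates.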

[2] = target: H3 HA stem construct (H3ssF); experiment: as above; conditions: antigen blocked with: nothing
Method: as §1

Binder | mRNA display binding score [1] | mRNA display binding score [2]
B1 | inactive: 0.403 | inactive: -0.127
B2 | inactive: 0.381 | inactive: 0.269
B3 | inactive: -1.27 | inactive: 1.37
B4 | inactive: -0.399 | inactive: -0.65
B5 | inactive: -1.11 | inactive: -0.63
B6 | inactive: -0.188 | inactive: -0.133
B7 | inactive: 0.107 | inactive: -0.504
B8 | inactive: 0.103 | inactive: 0.484
B9 | inactive: -1.01 | inactive: -0.315
B10 | inactive: -0.459 | inactive: -0.669
B11 | inactive: 0.439 | inactive: -0.19
B12 | inactive: -1.04 | inactive: -0.748
B13 | inactive: 0.657 | inactive: 1.44
B14 | inactive: -0.883 | inactive: 0.0836
B15 | inactive: 1.73 | inactive: 1.08
B16 | inactive: -0.245 | inactive: -0.437
B17 | inactive: -0.175 | inactive: -0.412
B18 | inactive: 0.458 | inactive: -0.131
B19 | inactive: -0.543 | inactive: 0.548
